# According to the antibiotic and cytotoxicity screens of Wong et al. (2023):
# This is one part of the list.
# System: HSkMC (human skeletal muscle cells)
# Assay: cytotoxicity call (relative viability < 0.9)
# Details: 10 µM
row,SMILES,cytotoxicity call
1,CC(C)NC(=O)Nc1ccc2c(c1)C(=O)N([C@H](C)CO)C[C@H](C)[C@H](CN(C)Cc1ccccc1)OCCCC[C@H](C)O2,inactive
2,CCS(=O)(=O)N1CC[C@]2(CC1)CN([C@@H](CO)c1c2c2ccc(cc2n1C)OC)S(=O)(=O)c1ccccc1,inactive
3,C[C@H]1CN([C@@H](C)CO)C(=O)c2cc(NC(=O)Cn3cnnn3)ccc2O[C@H]1CN(C)S(=O)(=O)c1ccc(Cl)cc1,inactive
4,COc1ccc(C#Cc2cnc3c(c2)C(=O)N([C@H](C)CO)C[C@@H](C)[C@@H](CN(C)C(=O)CN(C)C)O3)cc1,inactive
5,C[C@H](O)C#Cc1ccc2c(c1)O[C@H](CN(C)C(=O)c1ccccc1)[C@H](C)CN([C@@H](C)CO)S2(=O)=O,inactive
6,C[C@@H]1CCCCO[C@H](CN(C)C(=O)Nc2ccc(F)cc2)[C@H](C)CN([C@@H](C)CO)C(=O)c2cc(NC(=O)C3CCCCC3)ccc2O1,inactive
7,C[C@H](CO)N1C[C@H](C)[C@H](CN(C)C(=O)CN(C)C)Oc2cc(C#CCN(C)C)ccc2S1(=O)=O,inactive
8,O=S(=O)(NCC[C@@H]1CC[C@@H](NS(=O)(=O)c2ccccc2Cl)[C@H](CO)O1)c1ccc(F)cc1,inactive
9,C[N+](C)(C)CCCCNC(=O)[C@@H]1C[C@@H]2C(=O)N3CCC[C@H]3C(=O)N2[C@@H]1c1cccc(OCCO)c1,inactive
10,C[C@H]1CN([C@@H](C)CO)C(=O)c2cc(NC(=O)CCCCCC(=O)Nc3ccccc3N)ccc2O[C@H]1CN(C)Cc1ccc(Oc2ccccc2)cc1,inactive
11,CCS(=O)(=O)N1C[C@]2(CN(C2)C(=O)CN2CCOCC2)c2c(n(c3cc(ccc23)OC)C)[C@H]1CO,inactive
12,CCC(=O)NCc1nccc(N(C)C)n1,inactive
13,CN1C(=O)c2cc(NC(=O)C3CCOCC3)ccc2OC[C@@H]2O[C@@H](CC(=O)NCCc3ccncc3)CC[C@@H]21,inactive
14,C[C@@H]1CN([C@H](C)CO)C(=O)c2cc(C#Cc3ccccc3F)cnc2O[C@H]1CN(C)C(=O)Cc1ccncc1,inactive
15,O=C(O)CCCN1C(=O)CSC1=S,inactive
16,C[C@@H]1CN([C@H](C)CO)C(=O)Cc2cc(NC(=O)c3ccncc3)ccc2O[C@H]1CN(C)S(=O)(=O)c1cn(C)cn1,inactive

row,SMILES,cytotoxicity call
1,O=C(c1ccccc1O)N1CCOCC1,inactive
2,C[C@@H]1CCCCO[C@@H](CN(C)C(=O)Nc2cccc3ccccc23)[C@@H](C)CN([C@H](C)CO)C(=O)c2cc(NS(=O)(=O)c3ccc(Cl)cc3)ccc2O1,inactive
3,NNC(=O)Cc1nc2ccccc2[nH]1,inactive
4,C[C@H]1CN([C@@H](C)CO)C(=O)c2cc(NS(=O)(=O)c3ccc(Cl)cc3)ccc2O[C@H]1CN(C)Cc1ccc(C(=O)Nc2ccccc2N)cc1,inactive
5,C[C@H]1CN([C@@H](C)CO)C(=O)Cc2cc(NC(=O)Nc3cccc4ccccc34)ccc2O[C@H]1CN(C)C(=O)Nc1ccc(F)cc1,inactive
6,C[C@H](CO)N1C[C@H](C)[C@H](CN(C)C(=O)Nc2cc(F)ccc2F)Oc2cc(/C=C/c3ccccc3)ccc2S1(=O)=O,inactive
7,O=C(C=Cc1ccc(O)c(O)c1)OC1CC(O)(C(=O)O)CC(O)C1O (stereo unspecified),inactive
8,C[C@@H]1CN([C@H](C)CO)C(=O)Cc2cc(NC(=O)CCC(F)(F)F)ccc2O[C@H]1CN(C)C(=O)Nc1ccc(C(F)(F)F)cc1,inactive
9,CNC(=O)C[C@H]1CC[C@@H]2[C@H](COc3ccc(NC(=O)c4ccc(C(F)(F)F)cc4)cc3C(=O)N2C)O1,inactive
10,CCS(=O)(=O)N1C[C@]2(CCN(CC2)C(=O)c2cccnc2)c2c(n(c3cc(ccc23)OC)C)[C@@H]1CO,inactive
11,Cn1cnc(S(=O)(=O)N2C[C@H](O)COC[C@@H]3O[C@H](CC(=O)NC4Cc5ccccc5C4)CC[C@H]32)c1,inactive
12,C[C@@H]1CN([C@H](C)CO)C(=O)c2cccc(NS(=O)(=O)c3ccc(Cl)cc3)c2O[C@H]1CN(C)Cc1ccc(Cl)c(Cl)c1,inactive
13,Cc1noc(C)c1NC(=O)N(C)C[C@@H]1Oc2ccc(NC(=O)CCCN(C)C)cc2C(=O)N([C@@H](C)CO)C[C@@H]1C,inactive
14,CC(C)NC(=O)Nc1cccc2c1O[C@H](CN(C)S(=O)(=O)c1ccc(Cl)cc1)[C@H](C)CN([C@@H](C)CO)C2=O,inactive
15,COc1ccc(CN(C)C[C@H]2Oc3ccc(NC(=O)Nc4cccc5ccccc45)cc3C(=O)N([C@H](C)CO)C[C@H]2C)cc1,inactive
